From the supplement of paper PMC10126150
Values marked as one replicate rest on one cluster of the flow cell; about a third of the high ones do not repeat.
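Also: ATP exposure 15 min at 22 °C before imaging.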

Each sequence was assayed on ATP (assay: switch fluorescence ratio, 500 uM ATP over buffer (Cy3 cluster intensity, sum of 5 cycles each) (fold (ratio)); higher = stronger signal-on switching upon ATP binding; sequences stand for … in TCGTCGGCAGCGTCAGATGTGTATAAGAGACAGTTTTTTTTTTTTTTTTTTTTTTTTT…TC). Conditions: aptamer strand: ATP DNA aptamer (quencher-CACCTGGGGGAGTATTGCGGAGGAAGG + anchor), 100 nM annealed; ATP concentration: 500 uM; one replicate.
How it was run: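 Switching-strand clusters labelled with Cy3 on a modified Illumina MiSeq flow-cell were annealed to 100 nM quencher-labelled ATP aptamer, imaged in selection buffer, and re-imaged after 15 min with 500 uM ATP at 22 °C. This was done over five cycles with NaOH stripping and re-annealing in between. The fluorescence ratio is summed target-cycle over summed buffer-cycle Cy3 intensity per cluster, averaged per switch-domain sequence, excluding clusters outside 100-1000 RFU.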
AGAGTCGGTA showed a switch fluorescence ratio of 1.01. AGAGTTAAAT gave a switch fluorescence ratio of 1.01. With AGAGTTCCGT the switch fluorescence ratio was 0.995. Sequence AGATAAAATA has a switch fluorescence ratio of 1. AGATACAGTA was tested, and the switch fluorescence ratio was 0.988. In the case of AGATACCC, the switch fluorescence ratio is reported as 1.04. AGATATAGTT showed a switch fluorescence ratio of 0.975. Sequence AGATATCGTT has a switch fluorescence ratio of 1.01. Work on AGATATGTG yielded a switch fluorescence ratio of 1. AGATATTA was tested, and the switch fluorescence ratio was 1.01. AGATATTATC showed a switch fluorescence ratio of 1.07. Sequence AGATCAGGCG has a switch fluorescence ratio of 1.21. AGATCCCCGG showed a switch fluorescence ratio of 1.03. AGATCGGTCG gave a switch fluorescence ratio of 1.03. AGATCTAAC gave a switch fluorescence ratio of 0.965. Sequence AGATCTGAAG has a switch fluorescence ratio of 0.995. AGATGAAAAT showed a switch fluorescence ratio of 0.981. AGATGACTA showed a switch fluorescence ratio of 1.02. Sequence AGATGAGGAG has a switch fluorescence ratio of 0.993. In the case of AGATGATCGA, the switch fluorescence ratio is reported as 0.975. AGATGCAACC was tested, and the switch fluorescence ratio was 1.09. Sequence AGATGCCGCA has a switch fluorescence ratio of 0.987. Sequence AGATGCGCTA has a switch fluorescence ratio of 0.996. With AGATGCTGTT the switch fluorescence ratio was 1.02. AGATGGAGTG showed a switch fluorescence ratio of 0.95. Sequence AGATGGGATG has a switch fluorescence ratio of 0.991. Work on AGATGGGTGA yielded a switch fluorescence ratio of 1.01. AGATGGTGGA gave a switch fluorescence ratio of 0.99. For AGATGTGCAC, the switch fluorescence ratio was 0.958. AGATGTGGAC gave a switch fluorescence ratio of 0.973. For AGATGTTACC, the switch fluorescence ratio was 1.04. For AGATTAATGC, the switch fluorescence ratio was 1.02. AGATTCAATT showed a switch fluorescence ratio of 0.986. For AGATTCCAGG, the switch fluorescence ratio was 1.14. In the case of AGATTCCCAC, the switch fluorescence ratio is reported as 0.954. In the case of AGATTCGAAG, the switch fluorescence ratio is reported as 0.957. With AGATTGTCTG the switch fluorescence ratio was 0.95. AGATTTATTA gave a switch fluorescence ratio of 0.99. Sequence AGATTTGCCC has a switch fluorescence ratio of 0.944. Work on AGATTTTCA yielded a switch fluorescence ratio of 1.03. With AGCAAAAAAT the switch fluorescence ratio was 1.17. In the case of AGCAAAACTT, the switch fluorescence ratio is reported as 1.55. With AGCAAATGCT the switch fluorescence ratio was 1.26. For AGCAACTACC, the switch fluorescence ratio was 3.46. Sequence AGCAAGGAG has a switch fluorescence ratio of 1.12. With AGCAAGGCGA the switch fluorescence ratio was 1.17. AGCAAGGGTC showed a switch fluorescence ratio of 1.38. AGCAATGTAA showed a switch fluorescence ratio of 1.28. AGCACACTTG showed a switch fluorescence ratio of 0.987. Sequence AGCACAGCAT has a switch fluorescence ratio of 1.01. With AGCACCCCTT the switch fluorescence ratio was 1.14. AGCACGATG showed a switch fluorescence ratio of 1.01. Work on AGCACGATGT yielded a switch fluorescence ratio of 1. Sequence AGCACGCTAC has a switch fluorescence ratio of 2.31. AGCAGAATT was tested, and the switch fluorescence ratio was 1.01. For AGCAGAGCTC, the switch fluorescence ratio was 1.02. Sequence AGCAGATATA has a switch fluorescence ratio of 1. For AGCAGCACGA, the switch fluorescence ratio was 1.28. Sequence AGCAGCGGGA has a switch fluorescence ratio of 1. AGCAGGGGCA was tested, and the switch fluorescence ratio was 1.06. Work on AGCAGTGAAA yielded a switch fluorescence ratio of 0.999. AGCAGTGCGC gave a switch fluorescence ratio of 1.07. In the case of AGCAGTTCTG, the switch fluorescence ratio is reported as 1.07. AGCATCCGTC gave a switch fluorescence ratio of 1.09. AGCATGGTGA showed a switch fluorescence ratio of 1.05. AGCATGTTTT showed a switch fluorescence ratio of 1.01. In the case of AGCATTAGAA, the switch fluorescence ratio is reported as 0.991. With AGCATTATCC the switch fluorescence ratio was 1.3. Work on AGCATTGGGA yielded a switch fluorescence ratio of 0.978. AGCATTGGTG was tested, and the switch fluorescence ratio was 1.03. AGCCAAAGTG showed a switch fluorescence ratio of 1.01. AGCCAACGGA showed a switch fluorescence ratio of 0.979. Work on AGCCACAGGA yielded a switch fluorescence ratio of 1.04. AGCCACCGGC was tested, and the switch fluorescence ratio was 1.03. Work on AGCCACGGGA yielded a switch fluorescence ratio of 1.08. For AGCCAGATCA, the switch fluorescence ratio was 1.02. With AGCCCACAAA the switch fluorescence ratio was 1.03. For AGCCCACATG, the switch fluorescence ratio was 1.05. In the case of AGCCCAGTTT, the switch fluorescence ratio is reported as 1.02. Sequence AGCCCATACC has a switch fluorescence ratio of 1.18. In the case of AGCCCCCTTT, the switch fluorescence ratio is reported as 1.07. In the case of AGCCCGTAGT, the switch fluorescence ratio is reported as 1.03. Sequence AGCCCGTCTG has a switch fluorescence ratio of 1.03. With AGCCGACGGG the switch fluorescence ratio was 1.03. Sequence AGCCGGGACC has a switch fluorescence ratio of 0.992.
